Measured values taken from PubChem BioAssay AID485364 (National Center for Advancing Translational Sciences (NCATS), 2010).
About 11,000 (3.1%) of roughly 360,000 compounds were called active. This list was built around the results that the source calls inconclusive (neither active nor inactive); the mix of calls is not that of the screen. The call rests on the fitted dose curve; in most records, active means well fitted inhibition curve with a large enough effect; inconclusive means small, poorly fitted or top-dose-only effect; inactive means no such curve, though single readings can be large or run the other way. Potencies of inconclusive entries are left out as doubtful fits.

Molecular target: Schistosoma mansoni thioredoxin glutathione reductase (TGR) (UniProt Q962Y6)
Assay: qHTS Assay for the Inhibitors of Schistosoma Mansoni Peroxiredoxins; further: nearly all actives have a fitted effect of over 60% in size
Conditions: purified TGR, DTNB reduction, TNB absorbance 405 nm; series mostly up to 114 µM
In short: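 First, TGR (20 nM dispensed) and NADPH were mixed with compound. Second, a 15 min room-temperature incubation followed. Third, further NADPH and then DTNB were added to start the reaction. Finally, TNB absorbance was monitored kinetically.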
Potency means the concentration at half of the fitted maximal effect; tags describe the fitted curve by direction and shape.

Row | SMILES | Potency
1 | Cc1ccccc1N1C(=O)C2ON(c3ccccc3)C(c3cccnc3)C2C1=O (stereo not drawn) | inconclusive [inhibitor, partial curve]
2 | Cc1ccc2c(Cl)cc(Cl)c(OCC(=O)NCc3ccco3)c2n1 | inconclusive [inhibitor, partial curve]
3 | CCOC(=O)c1[nH]c(C)c(C(=O)Nc2ccc3c(c2)OCCO3)c1C | inactive
4 | O=C(CC1SC(=O)N(c2ccccc2)C1=O)Nc1cccc2ccccc12 (stereo not drawn) | inconclusive [inhibitor, full curve]
5 | C/C(=C\C(=O)c1ccc(C)cc1)Nc1ccc(N2CCOCC2)cc1 | inactive
6 | O=C1CC(c2cccs2)CC(O)=C1C=NCCN1CCNCC1 (stereo not drawn) | inconclusive [inhibitor, partial curve]
7 | O=C(c1ccco1)[C@@H]1[C@@H]2C(=O)N(c3ccc(F)cc3)C(=O)[C@@H]2C2c3ccccc3C=CN21 (stereo partly drawn) | active: 22.4 µM
8 | Cc1noc(C)c1COc1ccc(C(=O)N2CCCC(C(F)(F)F)C2)cc1 (stereo not drawn) | inconclusive [inhibitor, single point]
9 | OC(CNCCNc1ncccc1C(F)(F)F)COc1ccc(F)cc1 (stereo not drawn) | inactive
10 | Cc1ccc(S(=O)(=O)Cc2ccc(C(=O)NCc3ccc4c(c3)OCO4)o2)cc1 | active: 25.1 µM
11 | COc1ccc(NC(=O)C2C3C=CC(C3)C2C(=O)NCc2ccco2)cc1 (stereo not drawn) | inconclusive [inhibitor, partial curve]
12 | Cn1c(=O)c2sccc2n2c(CCCC(=O)Nc3ccc(Oc4ccc(Cl)cc4)cc3)nnc12 | inactive
13 | Cc1ccc(CNC2=NCCCCC2)n1C | inconclusive [inhibitor, partial curve]
14 | CCOC(=O)c1cc(-c2ccccc2)n(CCC(=O)Nc2nc3c(C)cccc3s2)c1C | inactive
15 | CC(C)(CNC(=O)CNC(=O)c1ccc(Cl)cc1Cl)N1CCOCC1 | inactive
16 | Cc1onc(-c2ccccc2Cl)c1C(=O)Nc1nc2c(s1)CCCC2 | inactive
17 | CN(C)c1ccc(/C=N/NC(=O)C2COc3ccccc3O2)o1 (stereo not drawn) | active: 15.8 µM
18 | O=C(NCc1ccco1)C1CCCN1S(=O)(=O)c1ccccc1C(F)(F)F (stereo not drawn) | inconclusive [inhibitor, partial curve]
19 | C/C=C/c1ccc(OCC(=O)N2CCc3cc(OC)c(OC)cc3C2)c(OC)c1 | inconclusive [inhibitor, partial curve, poor fit]
20 | COc1ccccc1CNC(=O)CSCc1nc(-c2ccc(OC)c(OC)c2)oc1C | inconclusive [inhibitor, partial curve]
21 | CCOc1ccc(NC(=O)c2sc3nc4c(cc3c2N)CN(Cc2ccccc2)CC4)cc1 | inactive
22 | CCOC(=O)C(CSCC(=O)c1ccc(Cl)cc1)NC(=O)OC(C)(C)C (stereo not drawn) | inconclusive [inhibitor, partial curve]
23 | OC(c1ccccc1)C1CN(Cc2ccccc2)CCC1(O)c1ccccc1 (stereo not drawn) | active: 20 µM
24 | O=C1CS/C(=N/N=C/c2ccco2)N1Cc1ccc(F)cc1 | active: 25.1 µM
25 | COC(=O)c1cc(NCc2cccs2)ccc1N1CCOCC1 | inconclusive [inhibitor, partial curve]

Row | SMILES | Potency
26 | C#CCOCCOCCOCCNc1nc(N2CCN(C(=O)CCCCCCCCCCNC(=O)[C@H]([C@@H](C)CC)n3cc(CCCCCN)nn3)CC2)nc(N2CCN(C(=O)CCCCCCCCCCNC(=O)[C@H](CO)n3cc(CCCCCN)nn3)CC2)n1 | inconclusive [inhibitor, partial curve]
27 | CCOC(=O)c1ccc(NC(=O)COc2cccc3c(=O)n(C)ccc23)cc1 | inconclusive [inhibitor, single point]
28 | Oc1ccccc1-[n+]1c(-c2ccccc2)cc(-c2ccccc2)c(O)c1-c1ccccc1 | inconclusive [inhibitor, partial curve]
29 | CCOC(=O)C1=C(CSc2nc3ccccc3s2)NC(=O)NC1c1cc(C)ccc1C (stereo not drawn) | inactive
30 | O=C(CSc1nnnn1-c1ccccc1)N1N=CCC1c1ccccc1 (stereo not drawn) | inactive
31 | N/C(=N\OC(=O)Cc1ccc(Cl)cc1)c1cccnc1 | inactive
32 | Cc1cccnc1NC(=S)Nc1ccc(Br)cc1Cl | inconclusive [inhibitor, full curve]
33 | CCCCOP(=O)(OCCCC)C1(NS(=O)(=O)c2ccccc2)C=CC(=O)c2ccccc21 (stereo not drawn) | inconclusive [inhibitor, partial curve]
34 | Cc1ccc(C(=O)c2ccc([N+](=O)[O-])cc2)c(C)c1 | inconclusive [inhibitor, full curve, poor fit]
35 | CCCCc1nc2cc(C(=O)NCc3nccn3CC)ccc2o1 | inactive
36 | CCC(C)(C)NC(=O)C(c1ccncc1)N(Cc1ccc(C)cc1)C(=O)c1csnn1 (stereo not drawn) | inactive
37 | O=C(CN1CCN(S(=O)(=O)c2ccc(Cl)s2)CC1)N1CCOCC1 | inconclusive [inhibitor, full curve, poor fit]
38 | Nc1cc2c(cc1O)CCCC2 | active: 39.8 µM
39 | Cc1cc(C)c(S(=O)(=O)n2cc(C(C)C(N)C(=O)O)c3ccccc32)c(C)c1 (stereo not drawn) | active: 10 µM
40 | O=C(O)CCc1ccc(-c2ccc(Br)cc2)n1-c1cccc(O)c1 | active: 31.6 µM
41 | Cc1nc(-c2coc3cc(C)c(N=O)c(O)c3/c2=N\N)cs1 | inactive
42 | C#CC(=O)N(c1cc(OC)ccc1OC)C(C(=O)NC1CCCC1)c1cccs1 (stereo not drawn) | inconclusive [inhibitor, partial curve, poor fit]
43 | Cc1cc([N+](=O)[O-])nn1CC(=O)c1ccccc1 | inactive
44 | COc1ccc(-n2cccc2/C=C/[N+](=O)[O-])cc1 | active: 25.1 µM
45 | Cc1c(Cl)cccc1-n1ncc(C(=O)N2CCC(C)CC2)c1C1CCN(C(=O)OC(C)(C)C)CC1 | inconclusive [inhibitor, full curve, poor fit]
46 | S=C(NCc1ccncc1)Nc1ccc(Cl)c(Cl)c1 | inconclusive [inhibitor, partial curve, poor fit]
47 | O=C(O)/C=C/C(=O)Nc1c(F)cccc1F | inconclusive [inhibitor, single point]
48 | O=C(O)C1CCC(NSc2ccccc2[N+](=O)[O-])CC1 (stereo not drawn) | inconclusive [inhibitor, partial curve]
49 | Cc1nc2ccccc2c(=O)n1NC(=O)c1ccc(Cl)c(Cl)c1 | inactive
50 | Cc1[nH]c2ccccc2c1C(=O)CN1CCCCC1CCO (stereo not drawn) | inconclusive [inhibitor, full curve]

Row | SMILES | Potency
51 | Cc1nc(C)n(CC(=O)N2CCCC(C(=O)c3cccc4ccccc34)C2)n1 (stereo not drawn) | inconclusive [inhibitor, partial curve]
52 | ClC(/C=N/n1cnnc1)=C/c1ccccc1 | inconclusive [inhibitor, partial curve]
53 | O=C(CN1CCC2(CC1)OCCO2)c1c[nH]c2ccccc12 | inconclusive [inhibitor, partial curve]
54 | Cn1c(=O)n(C)c2cc(NC(=O)c3cc4ccccc4o3)ccc21 | inactive
55 | Cc1c(OCc2nn[nH]n2)ccc2c3c(c(=O)oc12)CCC(C)C3 (stereo not drawn) | inconclusive [inhibitor, single point]
56 | Cc1cc2nn(-c3ccc(F)cc3)nc2cc1N | inconclusive [inhibitor, partial curve]
57 | C#Cc1ccc([C@@H]2C=C(C(=O)O)O[C@H](OCCCCO)C2)cc1 | active: 39.8 µM
58 | CCC/C(=C1/c2ccccc2C(=O)N1c1ccccc1)c1ccc2c(c1)OCO2 | inconclusive [inhibitor, partial curve]
59 | COc1ccc(/C=C/C(=O)N(C)C2CCS(=O)(=O)C2)cc1OC (stereo not drawn) | inconclusive [inhibitor, single point]
60 | c1nc(NCCN2CCOCC2)c2sc3nc(N4CCOCC4)c4c(c3c2n1)CCC4 | active: 44.7 µM
61 | Cc1ccnc(SCC(=O)N2CCc3ccccc3C2)n1 | active: 31.6 µM
62 | COC(=O)COc1ccc(S(=O)(=O)Nc2ccc3c(c2)OCCO3)cc1Cl | inconclusive [inhibitor, single point]
63 | COc1ccc(CN=C2NN=C(c3ccccc3)CS2)cc1 | inconclusive [inhibitor, partial curve]
64 | O=C(O)CCC(=O)N1CCN(c2cccc(Cl)c2)CC1 | inconclusive [inhibitor, single point]
65 | Cn1cnnc1SCC(=O)Nc1ccccc1Oc1ccccc1 | inconclusive [inhibitor, single point]
66 | COc1ccc(OCCOc2ccc(/C=C3\C(=N)N4N=C(C)SC4=NC3=O)cc2)cc1 | inactive
67 | COC(=O)CN1C(=O)CSc2ccc(S(=O)(=O)Nc3c(C)cc(C)cc3C)cc21 | inactive
68 | CC(C)N(CCNC(=O)C1CCCN(c2ncnc3c2nc2n3CCCCC2)C1)Cc1ccccc1 (stereo not drawn) | inactive
69 | Cc1nc(N)sc1-c1csc(Nc2cccc(C(=O)O)c2)n1 | inconclusive [inhibitor, single point]
70 | O=C(/C=C/c1ccc(O)c(O)c1)O[C@H](Cc1ccc(O)c(O)c1)C(=O)O | active: 3.16 µM
71 | CCOC(=O)N1CCN(C(=O)C(C)c2ccc([N+](=O)[O-])cc2)CC1 (stereo not drawn) | inconclusive [inhibitor, full curve, poor fit]
72 | CCS(=O)(=O)c1oc(-c2ccc(F)cc2)nc1S(=O)(=O)c1ccc(Br)cc1 | active: 0.631 µM
73 | N#Cc1ccccc1NC(=O)COC(=O)c1ccc(S(=O)(=O)N2CCCC2)cc1 | inconclusive [inhibitor, full curve, poor fit]
